Reference: patent EP4524159A1, “ANTIBODY AND USE THEREOF” (priority 2022, dated 2023)

B1: 1CP-117-MMAE: humanized antibody 1CP-117 linked to vc-MMAE (conjugate)
heavy: QVQLVQSGSELKKPGASVKVSCKASGYTLTDFSMHWVRQAPGQGLEWMGWINTETGAPTYADDFKGRFVLSLDTSVSTAYLQISSLKAEDTAVYYCSRGRDYDPHFDYWGQGTLVTVSS[left out - human IgG1 constant region]
light: EIVLTQSPATLSLSPGERATLSCRASQSISDFLHWYQQKPGQSPRLLIKYASQSISGIPARFSGSGSGSDFTLTISSVEPEDFAVYYCQSAHSFPYTFGQGTKLEIKRTVAAPSVFIFPPSDEQLKSGTASVVCLLNNFYPREAKVQWKVDNALQSGNSQESVTEQDSKDSTYSLSSTLTLSKADYEKHKVYACEVTHQGLSSPVTKSFNRGEC
B2: 1CP-152-MMAE: humanized antibody 1CP-152 linked to vc-MMAE, target DAR 4 (conjugate)
heavy: EVQLVESGGGLVQPGRSLRLSCTTSGLTFTHYHMSWVRQAPGKGLEWVAIIRNKAYGYTTDYSASVRGRFTISRDDSKSILYLQMNSLKTEDTAVYYCVREGGYGYDGTFAYWGQGTLVTVSS[left out - human IgG1 constant region]
light: DIQMTQSPSSLSASVGDRVTITCRASESVDNYGISFMNWFQQKPGQAPKLLIYAASNQGSGVPSRFSGSGSGTDFTLTISSMQPEDFATYYCQQSKEVPRTFGGGTKVEIKRTVAAPSVFIFPPSDEQLKSGTASVVCLLNNFYPREAKVQWKVDNALQSGNSQESVTEQDSKDSTYSLSSTLTLSKADYEKHKVYACEVTHQGLSSPVTKSFNRGEC

Legend:
[1] = Drug : antibody ratio (DAR) of antibody-vc-MMAE conjugates by hydrophobic HPLC; details: humanized antibody-vc-MMAE conjugates
Description: The specific operation was to reduce each antibody and the control antibody CD27H10 (27H10 antibody in WO2018112334A1) with a 2-fold molar amount of […] (TECP) at 4 °C for 1 hour. A 7-fold molar amount of vcMMAE was then added for ligation at 4-25 °C for 1 h, and then the reaction mixture was dialyzed against 1 × PBS pH 8.0 and filtered for sterilization. Drug : antibody ratio (DAR) was detected by hydrophobic kurtosis with HLPC, and the molecular coupling results are shown in Table 14. Table 14 DAR values of antibody-drug conjugates
The humanized antibodies 1CP-125, 1CP-117 and 1CP-152 were subjected to linking to form ADC, and the linking process was the same as in example 18. Table 18 DAR values of antibody-drug conjugates

[2] = Thermal stability detection of ADC molecules (UNcle: Tm, Tagg, DLS); type: physicochemical
Description: The 1CP-152 antibody and the control antibody CD27H10 were respectively linked to the vc-MMAE with reference to the method of example 18, and the target DAR was 4. After that, the molecular physical and chemical properties were detected and analyzed, and the specific analysis method was as follows:
(§1) The denaturation temperature (Tm value), aggregation temperature (Tagg value) and hydration kinetic diameter of ADC molecules were measured by UNcle multifunctional protein stability analysis system. Wherein, the Tm value was based on endogenous fluorescence spectroscopy method, and was fitted and calculated according to BCM algorithm, the Tagg value was measured by static light scattering (SLS) technology, and the hydration dynamics diameter was measured by dynamic light scattering (DLS) technology. • SEC purity detection: The purity of ADC molecules was analyzed by high performance liquid chromatography (HPLC). • Liquid chromatograph: Shimadzu LC-2030C Plus • chromatographic column: TSKgel G3000SWXL, 7.8× 300 mm, 5 µm, TOSOH • mobile phase: 61 mmol/L Na2HPO4, 39 mmol/L NaH2PO4, 200 mmol/L NaCl, pH6.8 • flow rate: 1.0 ml/min • Detection wavelength: UV 220 nm • column temperature: 30 °C • Sample chamber temperature: 10 °C • Injection volume: 20 µg • Isocratic running time: 30 min

[3] = SEC purity (HPLC) of ADC molecules after storage at 2 to 8°C; type: physicochemical; details: for HMW / LMW / MP: 2 to 8°C, peak area normalization; for HMW: SEC-HPLC aggregate peak; for LMW: SEC-HPLC low molecular weight impurity peak; for MP: SEC-HPLC main (monomer) peak
Description: as §1
Quantitative analysis of the results was performed using peak area normalization method. If automatic integration failed due to reasons such as baseline drift, retention time variation, peak shape change or other reasons, integration parameters should be adjusted or the spectrum should be manually integrated. The main peak (MP) was the monomer peak, the peak with a retention time before the main peak was the aggregate peak (HMW), and the peak with a retention time after the main peak was the low molecular weight impurity peak (LMW).
In addition, 1CP-152-MMAE and CD27H10-MMAE were placed at 2 to 8°C for different time (0 days, 3 days, 5 days) to investigate the change in purity of the two molecules. […] Table 17 Long-term stability of ADC molecules

[4] = as printed in Table 19 (HCC1806)
[5] = as printed in Table 20 (HCT116)

Molecule | DAR [1, 4] | DAR [1, 5] | Tagg/°C ([2]; aggregation temperature, static light scattering) [°C] | Tm/°C ([2]; denaturation temperature, endogenous fluorescence) [°C] | Mean particle size/nm ([2]; hydration kinetic diameter, dynamic light scattering) [nm] | HMW ([3]; D0) [%] | LMW ([3]; D0) [%] | MP ([3]; D0) [%] | HMW ([3]; D3) [%] | LMW ([3]; D3) [%] | MP ([3]; D3) [%] | HMW ([3]; D5) [%] | LMW ([3]; D5) [%] | MP ([3]; D5) [%] | change in purity ([3]; after leaving at 2-8°C for 5 days, SEC-HPLC)
B1 | 4.8 | 4.8 | – | – | – | – | – | – | – | – | – | – | – | – | –
B2 | 4.5 | 4.5 | 64.1 | 76.6 | 12.8 | 1.9 | 0.9 | 97.2 | 1.9 | 0.8 | 97.3 | 1.9 | 0.8 | 97.3 | did not change
